About 150 (0.041%) of roughly 370,000 compounds were called active. This list was built around the results that the source calls inconclusive (neither active nor inactive); the mix of calls is not that of the screen. The call rests on the fitted dose curve; in most records, active means well fitted inhibition curve with a large enough effect; inconclusive means small, poorly fitted or top-dose-only effect; inactive means flat fitted curve, though single readings scatter. No potency is given beside an inconclusive call; the fits are too rough.
What follows are compounds tested against Beta-lactamase (Escherichia coli (strain K12)) (UniProt P00811) (assay: qHTS Inhibitors of AmpC Beta-Lactamase (assay with detergent)). Settings: AmpC hydrolysis of nitrocefin, absorbance 480 nm, 0.01% Triton; activity change, negative = inhibition: at 114 µM (top of the series).
UniProt P00811, sequence (P00811 whole entry, looked up): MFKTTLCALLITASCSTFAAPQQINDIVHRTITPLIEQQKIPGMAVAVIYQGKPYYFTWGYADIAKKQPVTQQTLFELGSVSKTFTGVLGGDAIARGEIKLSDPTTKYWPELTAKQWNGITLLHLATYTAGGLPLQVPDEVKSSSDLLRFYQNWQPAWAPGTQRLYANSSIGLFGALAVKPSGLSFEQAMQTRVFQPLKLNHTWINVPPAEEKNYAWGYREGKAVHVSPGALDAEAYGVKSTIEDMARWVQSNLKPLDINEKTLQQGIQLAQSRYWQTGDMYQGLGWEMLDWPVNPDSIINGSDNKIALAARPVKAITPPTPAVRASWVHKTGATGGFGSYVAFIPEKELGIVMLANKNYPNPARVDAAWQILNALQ
In short: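 20 mM phosphate pH 7.0 + 0.01% (detergent screen) or 0.0001% Triton X-100; 5.3 nM AmpC reagent; cpd preinc 15 min RT; nitrocefin (800 uM stock) to start; A480 q20 s × 4 min; Activity was normalised to no-enzyme and no-compound control wells.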
Further: nearly all actives have a fitted effect of over 25% in size.
Potency means the concentration at half of the fitted maximal effect; tags describe the fitted curve by direction and shape.
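Wherever activity change, negative = inhibition is given: 0% = no-compound wells and -100% = no-enzyme wells.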

Structure (SMILES) | Potency | activity change, negative = inhibition
N#Cc1cccc(-n2nnnc2-c2ccc3c(c2)OCO3)c1 | inconclusive [inhibitor, partial curve, poor fit] | –
CC(Oc1ccc2c3c(c(=O)oc2c1)CCCC3)C(=O)NCC1CCC(C(=O)O)CC1 (centres undefined) | inconclusive [inhibitor, full curve, poor fit] | –
CC1=C(C(=O)OCC2CCCO2)C(c2ccccc2OC(C)C)C2=C(CC(c3ccco3)CC2=O)N1 (centres undefined) | – | inactive: -0.593%
O=C(O)CCN1c2cccc3cccc(c23)S1(=O)=O | inconclusive [inhibitor, partial curve] | –
Cc1nc(CNS(=O)(=O)c2cccs2)cs1 | – | inactive: 2.21%
COc1ccccc1C(=O)N1CCN(S(=O)(=O)Cc2ccccc2)CC1 | inconclusive [inhibitor, full curve, poor fit] | –
CSc1nc(C)c(CCOCc2ccc(F)cc2)c(=O)[nH]1 | inconclusive [inhibitor, full curve, poor fit] | –
Cc1ccc(NC(=O)c2c(C)noc2C)cc1 | – | inactive: 5.4%
NC(=O)c1c(NC(=O)c2cccnc2Cl)sc2c1CCCC2 | – | inactive: -0.472%
CCCNc1ccc(C(=O)OCC)cc1[N+](=O)[O-] | inconclusive [inhibitor, single point] | –
Cc1cc2nnc(SCC(=O)NC3CCCCC3)n2c(N)n1 | – | inactive: 2.73%
CCc1ccc(C2=NN(C(=O)CCC(=O)O)C(c3cccs3)C2)cc1 (centres undefined) | – | inactive: -10.5%
CCOC(=O)c1cc2sccc2n1CC(=O)Nc1ccc(OC)cc1 | inconclusive [inhibitor, full curve, poor fit] | –
O=c1[nH]c(N/N=C\c2ccc(F)cc2)nc2ccccc12 | – | inactive: -1.04%
O=C(N/N=C/c1sc(N2CCOCC2)nc1-c1ccccc1)c1ccc(O)cc1 | – | inactive: -6.22%
CCCSCCCNC(=O)c1ccc2nc(Cc3ccccc3)oc2c1 | – | inactive: 14.4%
O=C(Nc1nccs1)c1ccc(Cl)c([N+](=O)[O-])c1 | – | inactive: -0.725%
COC(=O)c1ccccc1NC(=O)C/C(C)=N/NC(=O)Cc1ccc(Cl)cc1 | – | inactive: -5.91%
O=C(O)CSc1nnc2n(-c3ccccc3)c(=O)c3ccccc3n12 | inconclusive [inhibitor, full curve, poor fit] | –
O=C(NCc1csc(-c2cccs2)n1)C1CCC1 | – | inactive: 2.08%
Cc1ccc(Cl)cc1NC(=O)CSC(N)=O | inconclusive [inhibitor, single point] | –
COc1ccc(Nc2cc(C(=O)NCc3ccccc3OC)c3ccccc3n2)cc1 | – | inactive: 5.72%
Cc1ccc2c(Cl)cc(Cl)c(OCC(=O)N(C(C)C)C(C)C)c2n1 | – | inactive: 14.2%
COC(=O)COc1cccc(NC(=O)C(c2ccccc2)c2ccccc2)c1 | inconclusive [inhibitor, full curve, poor fit] | –
CCS(=O)(=O)Nc1ccc(C2=NN(C(=S)Nc3ccccc3)C(c3ccco3)C2)cc1 (centres undefined) | inconclusive [inhibitor, partial curve, poor fit] | –

Structure (SMILES) | Potency | activity change, negative = inhibition
CCc1cccc(C)c1NC(=O)CSc1nnc(CC)n2c1cc1occc12 | – | inactive: 7.09%
COc1ccc(-n2c(Cc3cc(=O)[nH]c(=O)[nH]3)nnc2SCC(=O)Nc2ccccc2)cc1 | inconclusive [inhibitor, full curve, poor fit] | –
COc1ccc(F)cc1S(=O)(=O)NCCc1sc2nc(-c3ccc(F)cc3)nn2c1C | – | inactive: -1.46%
COc1cc2c(cc1OC)C1OC(c3ccsc3)(C2)Oc2cc(C)oc(=O)c21 (centres undefined) | inconclusive [inhibitor, full curve, poor fit] | –
CCOCCCNC(=O)c1ccc(OC)c(OC2CCN(C(C)C)CC2)c1 | inconclusive [inhibitor, full curve, poor fit] | –
COC(=O)c1c(NC(=O)CN2CCC3(O)CCCCC3C2c2ccc(OC)cc2OC)sc(C)c1C (centres undefined) | – | inactive: -17.6%
C[N+](C)(C)C[C@H](O)CC(=O)[O-] | inconclusive [inhibitor, full curve, poor fit] | –
Cc1[nH]c(=O)c(C#N)cc1-c1csc(-c2ccccc2)n1 | – | inactive: -14.5%
O=C(/C=C/c1ccc(OCCCF)cc1)Nc1ccnc(-c2ccncc2)n1 | inconclusive [inhibitor, full curve, poor fit] | –
O=C(Nc1ccc(NC(=O)c2ccco2)c(Cl)c1)c1ccccc1 | – | inactive: 1.86%
CC1CN(C(=O)Nc2ccc(C(=O)NCc3cccc(F)c3)cc2)c2ccccc2S1 (centres undefined) | – | inactive: 14.4%
CCOC(=O)NC(NC(=S)Nc1ccc(OC)cc1)C(Cl)(Cl)Cl (centres undefined) | inconclusive [inhibitor, partial curve, poor fit] | –
O=C(Nc1ccc(NC(=O)C2CCCCC2)nc1)c1cccs1 | – | inactive: -1.09%
O=C(NC1CCN(Cc2ccccc2)CC1)c1cn(-c2ccccc2)nc1-c1cccnc1 | inconclusive [inhibitor, full curve] | –
Cc1cccc(-c2c3c(=O)n(C)c(=O)n(C)c3cn2-c2ccccc2O)c1 | – | inactive: -12.8%
CC1(C)CC(=O)c2cnc(NCc3ccco3)nc2C1 | inconclusive [inhibitor, full curve] | –
c1ccc(COCCCn2cc(-c3ccccc3)nn2)cc1 | inconclusive [inhibitor, partial curve] | –
NS(=O)(=O)c1ccc(N2N=C(c3ccccc3)CC2c2cccc(F)c2)cc1 (centres undefined) | inconclusive [inhibitor, full curve] | –
Cc1cc(C)c(S(=O)(=O)Nc2nnc(CC(C)C)s2)c(C)c1 | inconclusive [inhibitor, full curve, poor fit] | –
O=C1CCN(CCc2ccccc2)CCN1[C@H](CO)Cc1ccccc1 | inconclusive [inhibitor, full curve, poor fit] | –
COc1cccc(NC(C)=[N+](C)CCNS(=O)(=O)c2ccc(Cl)cc2)c1 | inconclusive [inhibitor, single point] | –
COCCNC(=O)CSc1nc2cc3c(cc2c(=O)n1CCCCCC(=O)NCc1ccc(OC)cc1)OCO3 | – | inactive: 8.39%
CC(Sc1cccc[n+]1[O-])C(=O)Nc1cccc([N+](=O)[O-])c1 (centres undefined) | inconclusive [inhibitor, partial curve, poor fit] | –
Cc1ccc(C2=NC3(CCCCC3)NC2=S)cc1 | – | inactive: -13.1%
COc1ccc(CNCc2cccc(C)c2)cc1 | – | inactive: -15.8%

Structure (SMILES) | Potency | activity change, negative = inhibition
COc1ccc(CC2CCOC2=O)cc1 (centres undefined) | inconclusive [inhibitor, full curve, poor fit] | –
NC(N)=N/N=C/c1ccc(OCc2ccc(Cl)cc2Cl)cc1 | inconclusive [inhibitor, partial curve, poor fit] | –
COc1ccc(NS(=O)(=O)c2cccc(C(=O)NCc3ccccn3)c2)cc1 | inconclusive [inhibitor, full curve, poor fit] | –
CCN(CC)C(=O)CSc1nnc([C@H](CCSC)NC(=O)OC(C)(C)C)o1 | inconclusive [inhibitor, partial curve] | –
Cc1[nH]c2ccc(C(=O)NCCCN3CCOCC3)cc2c1C | – | inactive: 0.179%
Cc1ccc(C)c(N(C(=O)c2csnn2)C(C(=O)NC2CCCCC2)c2cccnc2)c1 (centres undefined) | inconclusive [inhibitor, full curve, poor fit] | –
COc1ccc2cc(-c3nc4ccc(C(=O)O)cc4[nH]3)c(=O)oc2c1 | – | inactive: -0.971%
O=C(c1cccc([N+](=O)[O-])c1)N1CCN(C/C=C/c2ccccc2)CC1 | – | inactive: 8.94%
CCN1C(=O)c2cccc3c(NC(=O)c4ccc(OC)c(OC)c4)ccc1c23 | inconclusive [inhibitor, full curve, poor fit] | –
O=C(Nc1ccc(Cl)cc1)N1CCCN(Cc2ccc(F)cc2)C1 | inconclusive [inhibitor, single point] | –
CCOC(=O)c1ccc(N2CCN(c3cc(C)ccc3C)CC2)c(NC(=O)Nc2ccccc2)c1 | – | inactive: 4.75%
CC(=O)OCCCN1c2ccccc2Nc2nnc(-c3ccccc3)cc21 | – | inactive: 3.15%
COc1cc(CNc2ccc(N3CCCC3)cc2)ccc1OCc1ccccc1 | – | inactive: -14.5%
O=C1COc2ccc(C(=O)COC(=O)Cc3ccc(Cl)cc3)cc2N1 | inconclusive [inhibitor, full curve, poor fit] | –
CCc1ccc(NC(=S)NCC2CCCN2CC)cc1 (centres undefined) | – | inactive: -0.914%
CCc1ccc(CNC(=O)c2cnc3sc4cc(OC)ccc4n3c2=O)cc1 | – | inactive: 6.5%
Cc1csc(NC(=O)c2ccc(C)c([N+](=O)[O-])c2)n1 | inconclusive [inhibitor, full curve] | –
O=C(c1cncc(Br)c1)N1CCN(c2ccc(N3CCOCC3)nn2)CC1 | inconclusive [inhibitor, partial curve, poor fit] | –
COc1cc(C(=S)N2CCCCC2)ccc1OCC(=O)Nc1ccccc1Cl | inconclusive [inhibitor, full curve] | –
Cn1c2cc(B(O)O)sc2c2cnn(Cc3ccccc3F)c(=O)c21 | active: 2.82 µM | –
COc1ccc(CCNC(=O)C2=CCN(S(=O)(=O)c3ccc(F)cc3)CC2)cc1OC | inconclusive [inhibitor, full curve] | –
COc1ccc(S(=O)(=O)n2cnc3ccccc32)cc1 | inconclusive [inhibitor, full curve, poor fit] | –
COc1ccc2c(c1)CCc1c(C(=O)NCc3ccc(F)cc3)noc1-2 | inconclusive [inhibitor, partial curve, poor fit] | –
COc1cccc(C(=O)N2c3cc(C)ccc3C(C)(c3ccccc3)CC2(C)C)c1 (centres undefined) | – | inactive: 19.1%
